Assay results from PubChem BioAssay (NCI).
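1) Cells in 96-well plates. 2) Compound, 48 h, 5 concentrations. 3) Linear interpolation between surrounding doses. 4) Unreached endpoint = highest concentration. At the GI50, growth is halved. TGI is the concentration that stops growth completely.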

Tested on: NCI-H322M lung
Test: NCI-60 cell line screen, 48 h

Point of comparison: `Cc1cc2nc3c4ccccc4n(CC4=NCCN4)c3nc2cc1C`, GI50 4.29 µM. Against it:
- CCC(C)(C)c1ccc(OCCCCCCN2CCN(c3ccncc3)CC2)cc1 — 2.5-fold higher, 10.7 µM
- CC[C@@]12CC(C(=O)OC)=C3Nc4cc5c(cc4[C@@]34CCN(C[C@H]3O[C@H]31)[C@@H]24)[C@@H]1[C@H](O5)[C@@H](O)[C@@]2(CC)CC(C(=O)OC)=C3Nc4cc(O)ccc4[C@@]34CCN1[C@@H]24 — 21-fold lower, 0.205 µM
- Cc1ccc(-c2ccc(SCC(=O)Nc3ccc(S(N)(=O)=O)cc3Br)nn2)cc1 — 3.3-fold higher, 14.2 µM

Point of comparison: `CC[C@@]12CC(C(=O)OC)=C3Nc4cc5c(cc4[C@@]34CCN(C[C@H]3O[C@H]31)[C@@H]24)[C@@H]1[C@H](O5)[C@@H](O)[C@@]2(CC)CC(C(=O)OC)=C3Nc4cc(O)ccc4[C@@]34CCN1[C@@H]24`, TGI 6.82 µM. Against it:
- Cc1cc2nc3c4ccccc4n(CC4=NCCN4)c3nc2cc1C — 2.4-fold higher, 16.4 µM
- CCC(C)(C)c1ccc(OCCCCCCN2CCN(c3ccncc3)CC2)cc1 — 3.3-fold higher, 22.6 µM
- Cc1ccc(-c2ccc(SCC(=O)Nc3ccc(S(N)(=O)=O)cc3Br)nn2)cc1 — 5.3-fold higher, 36 µM
